# Experimental data reported in a collection of fitness landscapes (doi:10.1126/science.1257360).
# The other results are listed elsewhere or left out.
# B1: PhoQ; a variant is named by its letters at X, in order, P23837 (parent)
# chain: MKKLLRLFFPLSLRVRFLLATAAVVLVLSLAYGMVALIGYSVSFDKTTFRLLRGESNLFYTLAKWENNKLHVELPENIDKQSPTMTLIYDENGQLLWAQRDVPWLMKMIQPDWLKSNGFHEIEADVNDTSLLLSGDHSIQQQLQEVREDDDDAEMTHSVAVNVYPATSRMPKLTIVVVDTIPVELKSSYMVWSWFIYVLSANLLLVIPLLWVAAWWSLRPIEALAKEVRELEEHNRELLNPATTRELTSLVRNLNRLLKSERERYDKYRTTLTDLTHSLKTPLXXLQXXLRSLRSEKMSVSDAEPVMLEQISRISQQIGYYLHRASMRGGTLLSRELHPVAPLLDNLTSALNKVYQRKGVNISLDISPEISFVGEQNDFVEVMGNVLDNACKYCLEFVEISARQTDEHLYIVVEDDGPGIPLSKREVIFDRGQRVDTLRPGQGVGLAVAREITEQYEGKIVAGESMLGGARMEVIFGRQHSAPKDE
# Variants of: B1
# Test: enrichment ratio after two sorts for PhoP signalling (ratio (wild type AVST 3.29)); higher = more functional
# Details: with PhoP (E. coli)
row,Variant,enrichment ratio
1,QWLH,≤ 0.25
2,TMYA,≤ 0.25
3,SDDY,≤ 0.25
4,DCFQ,≤ 0.25
5,YKKT,≤ 0.25
6,KCKN,≤ 0.25
7,FAES,≤ 0.25
8,HLHD,≤ 0.25
9,VRHF,≤ 0.25
10,VWCA,≤ 0.25
11,RCGI,≤ 0.25
12,SFNY,≤ 0.25
13,QLYF,≤ 0.25
14,TMFE,≤ 0.25
15,NIGY,≤ 0.25
16,HYIS,≤ 0.25
17,VIRQ,≤ 0.25
18,NQLV,≤ 0.25
19,QLTT,≤ 0.25
20,NKDW,≤ 0.25
21,MQMM,≤ 0.25
22,LVRE,≤ 0.25
23,VFHF,≤ 0.25
24,PCIE,≤ 0.25

row,Variant,enrichment ratio
1,IVRY,≤ 0.25
2,QFKQ,≤ 0.25
3,DQEM,≤ 0.25
4,TMGV,12.1
5,TEFK,1.68
6,EFIQ,≤ 0.25
7,YEHF,≤ 0.25
8,QYRF,≤ 0.25
9,NWKM,≤ 0.25
10,WGAN,≤ 0.25
11,FSLM,19.2
12,IGMV,7.79
13,RLEI,≤ 0.25
14,PNKW,≤ 0.25
15,MDGL,≤ 0.25
16,EFPW,≤ 0.25
17,SMDQ,≤ 0.25
18,MRWA,≤ 0.25
19,QDAF,≤ 0.25
20,FSDN,≤ 0.25
21,MKHV,≤ 0.25
22,HQGH,≤ 0.25
23,ICMT,≤ 0.25
24,RWNH,≤ 0.25

row,Variant,enrichment ratio
1,FYCA,≤ 0.25
2,MGHL,19.3
3,RTMC,≤ 0.25
4,GYVD,≤ 0.25
5,IGVW,≤ 0.25
6,LERD,≤ 0.25
7,KMRC,≤ 0.25
8,GDRK,≤ 0.25
9,SQWT,3.36
10,DSSR,≤ 0.25
11,HNHN,≤ 0.25
12,HWPY,≤ 0.25
13,HPWV,≤ 0.25
14,LGYK,≤ 0.25
15,QTIV,≤ 0.25
16,NLDQ,≤ 0.25
17,RNLF,≤ 0.25
18,IEGP,≤ 0.25
19,SMRE,≤ 0.25
20,QNQM,≤ 0.25
21,FSRM,≤ 0.25
22,QFLS,≤ 0.25
23,ENAI,≤ 0.25
24,HDWC,≤ 0.25

row,Variant,enrichment ratio
1,QLHE,≤ 0.25
2,ATSV,12.7
3,WTSF,≤ 0.25
4,YQRC,≤ 0.25
5,LKMR,0.996
6,DCYR,≤ 0.25
7,VHER,≤ 0.25
8,NTAW,≤ 0.25
9,PFWT,≤ 0.25
10,RGPY,≤ 0.25
11,AATK,≤ 0.25
12,QCRI,≤ 0.25
13,PDLR,≤ 0.25
14,IFPE,≤ 0.25
15,DCRY,≤ 0.25
16,KIER,≤ 0.25
17,LDQQ,≤ 0.25
18,RYAY,≤ 0.25
19,SKFA,≤ 0.25
20,AIFD,≤ 0.25
21,ILEW,≤ 0.25
22,FNYI,≤ 0.25
23,AMPQ,≤ 0.25
24,GVSE,≤ 0.25

row,Variant,enrichment ratio
1,DDKT,≤ 0.25
2,IYFY,≤ 0.25
3,SHDN,≤ 0.25
4,KQKP,≤ 0.25
5,ELYE,≤ 0.25
6,HDLE,≤ 0.25
7,MYNR,≤ 0.25
8,FIFK,≤ 0.25
9,SHEH,≤ 0.25
10,IAFV,≤ 0.25
11,IHAH,≤ 0.25
12,TDQF,≤ 0.25
13,HHKS,≤ 0.25
14,RMNL,≤ 0.25
15,DCQI,≤ 0.25
16,DNVC,≤ 0.25
17,WCKP,≤ 0.25
18,SQEW,≤ 0.25
19,LPHY,≤ 0.25
20,DTDN,≤ 0.25
21,IGLQ,6.04
22,PKTH,≤ 0.25
23,YVSS,0.281
24,MKKA,≤ 0.25

row,Variant,enrichment ratio
1,SQMS,17.9
2,YWDR,≤ 0.25
3,YECK,≤ 0.25
4,YFLV,≤ 0.25
5,DTDK,≤ 0.25
6,GGRG,≤ 0.25
7,QCHG,≤ 0.25
8,NHVR,≤ 0.25
9,LIRD,≤ 0.25
10,RNDS,≤ 0.25
11,MQES,≤ 0.25
12,EFTL,0.438
13,RFSL,≤ 0.25
14,LLYH,≤ 0.25
15,MNGQ,≤ 0.25
16,KAGD,≤ 0.25
17,LYAC,≤ 0.25
18,AQTF,4.1
19,GYFH,≤ 0.25
20,KKGH,≤ 0.25
21,GVTD,≤ 0.25
22,TIQG,9.15
23,EHSR,≤ 0.25
24,PLWF,≤ 0.25

row,Variant,enrichment ratio
1,ICTK,≤ 0.25
2,TYPG,≤ 0.25
3,YRAH,≤ 0.25
4,FWNR,≤ 0.25
5,VMRH,≤ 0.25
6,DLFM,≤ 0.25
7,QFSK,≤ 0.25
8,TRCN,5.74
9,RNFF,≤ 0.25
10,ITMI,4.22
11,RPCY,≤ 0.25
12,RKVY,≤ 0.25
13,ATLA,9.51
14,IPFC,≤ 0.25
15,PPGI,≤ 0.25
16,DGHG,≤ 0.25
17,QHMW,≤ 0.25
18,TQEP,≤ 0.25
19,INPP,≤ 0.25
20,EGEY,≤ 0.25
21,RDLI,≤ 0.25
22,KVYI,≤ 0.25
23,SRGR,≤ 0.25
24,LAFW,≤ 0.25

row,Variant,enrichment ratio
1,PAMA,≤ 0.25
2,THAS,1.94
3,DWVW,≤ 0.25
4,QSGR,≤ 0.25
5,DMKT,≤ 0.25
6,DRPN,≤ 0.25
7,KHFN,≤ 0.25
8,EACG,≤ 0.25
9,RHFT,≤ 0.25
10,NIHR,≤ 0.25
11,TQNH,16.3
12,PWWG,≤ 0.25
13,YDTH,≤ 0.25
14,PSYC,≤ 0.25
15,WHTN,≤ 0.25
16,RNFK,≤ 0.25
17,WWPS,≤ 0.25
18,NVFF,≤ 0.25
19,WDKY,≤ 0.25
20,LMCV,≤ 0.25
21,WTIK,≤ 0.25
22,IDLA,≤ 0.25
23,DYDH,≤ 0.25
24,FNVH,≤ 0.25

row,Variant,enrichment ratio
1,KRLY,≤ 0.25
2,DSVP,≤ 0.25
3,SQAN,6.83
4,FKAQ,≤ 0.25
5,FDPW,≤ 0.25
6,EAWP,≤ 0.25
7,LCGQ,≤ 0.25
8,DCVI,≤ 0.25
9,RQVF,≤ 0.25
10,KNRK,≤ 0.25
11,FTFC,≤ 0.25
12,GCKV,≤ 0.25
13,QVNC,≤ 0.25
14,NYQP,≤ 0.25
15,NVFQ,≤ 0.25
16,MDRR,≤ 0.25
17,TFMK,≤ 0.25
18,DFLH,≤ 0.25
19,ALPA,≤ 0.25
20,GTED,≤ 0.25
21,SLDL,≤ 0.25
22,TMWP,≤ 0.25
23,HVMF,≤ 0.25
24,VDTT,≤ 0.25

row,Variant,enrichment ratio
1,NYEC,≤ 0.25
2,KYTR,≤ 0.25
3,FKQM,≤ 0.25
4,MSWC,4.27
5,ASPN,≤ 0.25
6,EPLH,≤ 0.25
7,DPFH,≤ 0.25
8,PTPA,≤ 0.25
9,NRYS,≤ 0.25
10,RLNG,≤ 0.25
11,FNWF,≤ 0.25
12,PNYQ,≤ 0.25
13,YACL,5.67
14,LVWP,≤ 0.25
15,CSIP,≤ 0.25
16,DRWM,≤ 0.25
17,VQAL,≤ 0.25
18,SFEM,4.71
19,TVYP,≤ 0.25
20,GTEY,≤ 0.25
21,GHGT,≤ 0.25
22,QYCG,≤ 0.25
23,ECGI,≤ 0.25
24,SPPW,≤ 0.25

row,Variant,enrichment ratio
1,SAHI,≤ 0.25
2,CVCT,≤ 0.25
3,WGDG,≤ 0.25
4,QPPR,≤ 0.25
5,MPRI,≤ 0.25
6,AQRV,0.258
7,EIGW,≤ 0.25
8,RYAW,≤ 0.25
9,YTDT,≤ 0.25
10,MPMH,≤ 0.25
11,WAKM,≤ 0.25
12,YNCY,≤ 0.25
13,GGPR,≤ 0.25
14,LGQK,≤ 0.25
15,TDWR,≤ 0.25
16,SFMA,3.47
17,WIRG,≤ 0.25
18,MQEF,≤ 0.25
19,AVGN,≤ 0.25
20,TVQV,12.7
21,LVDM,≤ 0.25
22,IFDY,≤ 0.25
23,EIER,≤ 0.25
24,PTEP,≤ 0.25

row,Variant,enrichment ratio
1,WHAS,≤ 0.25
2,NAII,≤ 0.25
3,QTCC,≤ 0.25
4,QHNK,≤ 0.25
5,PCYN,≤ 0.25
6,AKLN,14
7,LGFV,9.51
8,RNIN,≤ 0.25
9,RINR,≤ 0.25
10,QHKR,≤ 0.25
11,IVQS,≤ 0.25
12,WVVI,≤ 0.25
13,SIHE,≤ 0.25
14,GAKE,≤ 0.25
15,FWGE,≤ 0.25
16,PMGA,≤ 0.25
17,FNPK,≤ 0.25
18,YSWQ,≤ 0.25
19,FGPD,0.564
20,IRYK,≤ 0.25
21,RLHY,≤ 0.25
22,FRTW,≤ 0.25
23,TIND,2.17
24,KTLY,≤ 0.25

row,Variant,enrichment ratio
1,NRYQ,≤ 0.25
2,VEDC,≤ 0.25
3,GQNW,≤ 0.25
4,MIFF,1.81
5,TPQT,≤ 0.25
6,RFWA,≤ 0.25
7,MCHP,≤ 0.25
8,TDPS,≤ 0.25
9,RICD,≤ 0.25
10,EEVN,≤ 0.25
11,ASYN,≤ 0.25
12,YEEQ,≤ 0.25
13,QILC,≤ 0.25
14,PGYD,≤ 0.25
15,WDVR,≤ 0.25
16,YEQG,0.393
17,LERC,≤ 0.25
18,PWII,≤ 0.25
